# Experimental data: article PMC9911399, “Two distinct binding modes provide the RNA-binding protein RbFox with extraordinary sequence specificity”
# Where a chain is given by its changes, count along the chain named. Some of the results follow.
# T1: RBFOX1 RRM (Homo sapiens, UniProt Q9NWB1 109-208)
# T1 sequence: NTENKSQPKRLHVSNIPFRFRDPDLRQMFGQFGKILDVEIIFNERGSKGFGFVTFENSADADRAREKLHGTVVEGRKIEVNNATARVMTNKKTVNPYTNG
# B1: AGGGAUG (DNA:RNA)
# RNA: GGGAGACCGGAAUUCAGAUUGUCCAGGGAUGUUAAAUCCCGUCGUAGCCACCA
# DNA 1: CAATCTGAATTCCGGTCTCCC
# DNA 2: TGGTGGCTACGACGGGATT
# B2: AGGCCAU (DNA:RNA)
# RNA: B1 RNA with G28C, A29C, U30A, G31U
# DNA 1: CAATCTGAATTCCGGTCTCCC
# DNA 2: TGGTGGCTACGACGGGATT
# B3: CUGAAGG (DNA:RNA)
# RNA: B1 RNA with A25C, G26U, G28A, U30G
# DNA 1: CAATCTGAATTCCGGTCTCCC
# DNA 2: TGGTGGCTACGACGGGATT
# B4: AUUAUUU (DNA:RNA)
# RNA: B1 RNA with G26U, G27U, G28A, A29U, G31U
# DNA 1: CAATCTGAATTCCGGTCTCCC
# DNA 2: TGGTGGCTACGACGGGATT
# B5: GCUUUGC (DNA:RNA)
# RNA: GGGAGACCGGAAUUCAGAUUGUCCGCUUUGCUUAAAUCCCGUCGUAGCCACCA
# DNA 1: CAATCTGAATTCCGGTCTCCC
# DNA 2: TGGTGGCTACGACGGGATT
# B6: AAAUUUU (DNA:RNA)
# RNA: B1 RNA with G26A, G27A, G28U, A29U, G31U
# DNA 1: CAATCTGAATTCCGGTCTCCC
# DNA 2: TGGTGGCTACGACGGGATT
# B7: UAAAGUA (DNA:RNA)
# RNA: B1 RNA with A25U, G26A, G27A, G28A, A29G, G31A
# DNA 1: CAATCTGAATTCCGGTCTCCC
# DNA 2: TGGTGGCTACGACGGGATT
# B8: GAGGAAA (DNA:RNA)
# RNA: B1 RNA with A25G, G26A, U30A, G31A
# DNA 1: CAATCTGAATTCCGGTCTCCC
# DNA 2: TGGTGGCTACGACGGGATT
# B9: AUCCAGG (DNA:RNA)
# RNA: B1 RNA with G26U, G27C, G28C, U30G
# DNA 1: CAATCTGAATTCCGGTCTCCC
# DNA 2: TGGTGGCTACGACGGGATT
# B10: AUCGGGU (DNA:RNA)
# RNA: B1 RNA with G26U, G27C, A29G, U30G, G31U
# DNA 1: CAATCTGAATTCCGGTCTCCC
# DNA 2: TGGTGGCTACGACGGGATT
# B11: CACACCG (DNA:RNA)
# RNA: B1 RNA with A25C, G26A, G27C, G28A, A29C, U30C
# DNA 1: CAATCTGAATTCCGGTCTCCC
# DNA 2: TGGTGGCTACGACGGGATT
# B12: CACGAAU (DNA:RNA)
# RNA: B1 RNA with A25C, G26A, G27C, U30A, G31U
# DNA 1: CAATCTGAATTCCGGTCTCCC
# DNA 2: TGGTGGCTACGACGGGATT
# B13: GGGGACC (DNA:RNA)
# RNA: B1 RNA with A25G, U30C, G31C
# DNA 1: CAATCTGAATTCCGGTCTCCC
# DNA 2: TGGTGGCTACGACGGGATT
# B14: UCGUGGG (DNA:RNA)
# RNA: B5 RNA with G25U, U27G, U29G, C31G
# DNA 1: CAATCTGAATTCCGGTCTCCC
# DNA 2: TGGTGGCTACGACGGGATT
# B15: AAAAGUC (DNA:RNA)
# RNA: B1 RNA with G26A, G27A, G28A, A29G, G31C
# DNA 1: CAATCTGAATTCCGGTCTCCC
# DNA 2: TGGTGGCTACGACGGGATT
# B16: CGUCUUU (DNA:RNA)
# RNA: B1 RNA with A25C, G27U, G28C, A29U, G31U
# DNA 1: CAATCTGAATTCCGGTCTCCC
# DNA 2: TGGTGGCTACGACGGGATT
# B17: UUACAGC (DNA:RNA)
# RNA: B5 RNA with G25U, C26U, U27A, U28C, U29A
# DNA 1: CAATCTGAATTCCGGTCTCCC
# DNA 2: TGGTGGCTACGACGGGATT
# B18: CACGUAC (DNA:RNA)
# RNA: B5 RNA with G25C, C26A, U27C, U28G, G30A
# DNA 1: CAATCTGAATTCCGGTCTCCC
# DNA 2: TGGTGGCTACGACGGGATT
# B19: UGACACC (DNA:RNA)
# RNA: B1 RNA with A25U, G27A, G28C, U30C, G31C
# DNA 1: CAATCTGAATTCCGGTCTCCC
# DNA 2: TGGTGGCTACGACGGGATT
# B20: CGCUACG (DNA:RNA)
# RNA: B1 RNA with A25C, G27C, G28U, U30C
# DNA 1: CAATCTGAATTCCGGTCTCCC
# DNA 2: TGGTGGCTACGACGGGATT
# B21: CCGCUAC (DNA:RNA)
# RNA: B5 RNA with G25C, U27G, U28C, G30A
# DNA 1: CAATCTGAATTCCGGTCTCCC
# DNA 2: TGGTGGCTACGACGGGATT
# B22: GGUAACG (DNA:RNA)
# RNA: B1 RNA with A25G, G27U, G28A, U30C
# DNA 1: CAATCTGAATTCCGGTCTCCC
# DNA 2: TGGTGGCTACGACGGGATT
# B23: AUCGGUA (DNA:RNA)
# RNA: B1 RNA with G26U, G27C, A29G, G31A
# DNA 1: CAATCTGAATTCCGGTCTCCC
# DNA 2: TGGTGGCTACGACGGGATT
# B24: ACUAAAA (DNA:RNA)
# RNA: B1 RNA with G26C, G27U, G28A, U30A, G31A
# DNA 1: CAATCTGAATTCCGGTCTCCC
# DNA 2: TGGTGGCTACGACGGGATT
# B25: GCGGAGC (DNA:RNA)
# RNA: B5 RNA with U27G, U28G, U29A
# DNA 1: CAATCTGAATTCCGGTCTCCC
# DNA 2: TGGTGGCTACGACGGGATT
# B26: AUCUAGC (DNA:RNA)
# RNA: B5 RNA with G25A, C26U, U27C, U29A
# DNA 1: CAATCTGAATTCCGGTCTCCC
# DNA 2: TGGTGGCTACGACGGGATT
# B27: AAGAAGC (DNA:RNA)
# RNA: B1 RNA with G26A, G28A, U30G, G31C
# DNA 1: CAATCTGAATTCCGGTCTCCC
# DNA 2: TGGTGGCTACGACGGGATT
# B28: UUUAUGA (DNA:RNA)
# RNA: B5 RNA with G25U, C26U, U28A, C31A
# DNA 1: CAATCTGAATTCCGGTCTCCC
# DNA 2: TGGTGGCTACGACGGGATT
# B29: ACACUUA (DNA:RNA)
# RNA: B1 RNA with G26C, G27A, G28C, A29U, G31A
# DNA 1: CAATCTGAATTCCGGTCTCCC
# DNA 2: TGGTGGCTACGACGGGATT
# B30: CUGUGGA (DNA:RNA)
# RNA: B5 RNA with G25C, C26U, U27G, U29G, C31A
# DNA 1: CAATCTGAATTCCGGTCTCCC
# DNA 2: TGGTGGCTACGACGGGATT
# B31: UAGGACA (DNA:RNA)
# RNA: B1 RNA with A25U, G26A, U30C, G31A
# DNA 1: CAATCTGAATTCCGGTCTCCC
# DNA 2: TGGTGGCTACGACGGGATT
# Biological target: T1, RBFOX1 RRM
# Assay: EMSA; HiTS-Eq, 1 nM pool, 10 min; buffer printed only for the single-RNA assays: 10 mM Tris pH 7.5, 150 mM NaCl, 3.4 mM EDTA, 0.001% NP-40, 30 C
# Details: tags: His6 N-terminal (pET28a); label: 5' 32P
# Procedure, shortened: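 Purified wild-type or mutant RbFox RRM at increasing concentrations was equilibrated with 1 nM of 5′-radiolabelled RNA carrying 7 randomized nucleotides for 10 min in 50 µL. Unbound RNA was separated by 8% native PAGE and sequenced. Relative association constants came from read-count changes of each RNA species compared with the control reaction, normalised to the cognate motif.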
row,Binder,binding signal
1,B1,0.0215 KA relative to UGCAUGU
2,B2,0.00538 KA relative to UGCAUGU
3,B3,0.0159 KA relative to UGCAUGU
4,B4,0.00195 KA relative to UGCAUGU
5,B5,0.0232 KA relative to UGCAUGU
6,B6,0.00354 KA relative to UGCAUGU
7,B7,0.00856 KA relative to UGCAUGU
8,B8,0.0102 KA relative to UGCAUGU
9,B9,0.00478 KA relative to UGCAUGU
10,B10,0.00996 KA relative to UGCAUGU
11,B11,0.000533 KA relative to UGCAUGU
12,B12,0.00257 KA relative to UGCAUGU
13,B13,0.0295 KA relative to UGCAUGU
14,B14,0.0118 KA relative to UGCAUGU
15,B15,0.00273 KA relative to UGCAUGU
16,B16,0.0124 KA relative to UGCAUGU

row,Binder,binding signal
1,B17,0.00644 KA relative to UGCAUGU
2,B18,0.00332 KA relative to UGCAUGU
3,B19,0.00783 KA relative to UGCAUGU
4,B20,0.0115 KA relative to UGCAUGU
5,B21,0.00667 KA relative to UGCAUGU
6,B22,0.00744 KA relative to UGCAUGU
7,B23,0.00891 KA relative to UGCAUGU
8,B24,0.00144 KA relative to UGCAUGU
9,B25,0.0117 KA relative to UGCAUGU
10,B26,0.00476 KA relative to UGCAUGU
11,B27,0.00325 KA relative to UGCAUGU
12,B28,0.0154 KA relative to UGCAUGU
13,B29,0.00118 KA relative to UGCAUGU
14,B30,0.00908 KA relative to UGCAUGU
15,B31,0.00163 KA relative to UGCAUGU
